Molecules are shown by their SMILES. Screen size: about 310,000 compounds; about 2,200 (0.71%) showed an effect of 50% or more. The effect is printed as a negative number. The list shows a part of the results.

human ether-à-go-go-related gene (hERG) potassium channel, sequence (Q12809 whole entry, looked up): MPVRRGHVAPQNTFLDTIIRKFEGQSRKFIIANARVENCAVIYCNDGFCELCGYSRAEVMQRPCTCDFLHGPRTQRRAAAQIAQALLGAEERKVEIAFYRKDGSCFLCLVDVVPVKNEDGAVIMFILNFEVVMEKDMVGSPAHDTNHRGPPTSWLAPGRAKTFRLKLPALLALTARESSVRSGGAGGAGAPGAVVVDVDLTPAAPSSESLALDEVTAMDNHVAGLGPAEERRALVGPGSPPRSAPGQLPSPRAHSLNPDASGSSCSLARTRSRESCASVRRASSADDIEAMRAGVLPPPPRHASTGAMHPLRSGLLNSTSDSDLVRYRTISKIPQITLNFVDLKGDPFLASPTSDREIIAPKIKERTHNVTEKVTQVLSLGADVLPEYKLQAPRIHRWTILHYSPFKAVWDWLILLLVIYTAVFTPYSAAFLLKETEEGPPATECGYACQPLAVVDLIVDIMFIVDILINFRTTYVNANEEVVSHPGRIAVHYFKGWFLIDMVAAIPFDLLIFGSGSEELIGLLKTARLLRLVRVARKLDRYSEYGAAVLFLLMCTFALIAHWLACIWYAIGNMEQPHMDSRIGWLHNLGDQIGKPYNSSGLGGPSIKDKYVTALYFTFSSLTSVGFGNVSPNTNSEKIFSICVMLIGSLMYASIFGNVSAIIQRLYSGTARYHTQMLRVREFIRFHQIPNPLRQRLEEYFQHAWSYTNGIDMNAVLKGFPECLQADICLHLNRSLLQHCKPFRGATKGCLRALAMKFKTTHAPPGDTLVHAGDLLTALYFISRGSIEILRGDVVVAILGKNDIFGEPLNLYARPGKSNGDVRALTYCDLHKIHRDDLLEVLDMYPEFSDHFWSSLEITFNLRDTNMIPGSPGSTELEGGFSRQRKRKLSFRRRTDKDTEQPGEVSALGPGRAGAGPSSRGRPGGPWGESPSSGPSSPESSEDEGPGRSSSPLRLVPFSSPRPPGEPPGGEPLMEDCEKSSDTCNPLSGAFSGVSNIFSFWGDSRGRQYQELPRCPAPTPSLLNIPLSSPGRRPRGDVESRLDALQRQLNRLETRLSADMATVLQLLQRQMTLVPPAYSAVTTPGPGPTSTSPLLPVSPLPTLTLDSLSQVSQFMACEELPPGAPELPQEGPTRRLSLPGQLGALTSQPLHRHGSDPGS

The assay has as its target human ether-à-go-go-related gene (hERG) potassium channel (human, UniProt Q12809). As to the kind of experiment: primary screen, population patch clamp on CHO cells stably expressing hERG.
As for `O=C(c1cccn2c(=O)c3ccc(Cl)cc3nc12)N1CCC2(CC1)OCCO2`, the “hERG current change (%, negative = inhibition) at 1uM” value is recorded as 3.52%.

In the case of `NC(=O)/C(=N\O)c1ccccc1`, the “hERG current change (%, negative = inhibition) at 1uM” value is -8.46%.

On to `C/C(=N\N=C(N)N)c1ccc(Cl)c(Cl)c1.CC(=O)O`, for which the “hERG current change (%, negative = inhibition) at 1uM” value is listed as 2.45%.

Take `CCCCNC(=O)COC(=O)c1ccc(NS(=O)(=O)c2ccc3c(c2)OCCO3)cc1`: the “hERG current change (%, negative = inhibition) at 1uM” value was found to be 16.4%.

As for `COc1cnc(-c2ccccn2)nc1Oc1ccc(Cl)cc1`, the “hERG current change (%, negative = inhibition) at 1uM” value was 11.4%.

As to `Cc1cc(NC(=O)COC(=O)C2CC(=O)N(c3ccc(C)c(Cl)c3)C2)no1` (stereo not drawn), the “hERG current change (%, negative = inhibition) at 1uM” value turned out to be 9.86%.

As for `CC(C)(C)OC(=O)NC1CCN(S(=O)(=O)c2ccc3c(c2)OCCO3)CC1`, the “hERG current change (%, negative = inhibition) at 1uM” value is 0.935%.

On to `COCCN1C(=O)c2oc3ccccc3c(=O)c2C1c1ccc(OC)c(OC)c1` (stereo not drawn), for which the “hERG current change (%, negative = inhibition) at 1uM” value is 2.51%.

Take `N=C1c2ccccc2CN1c1ccc(S(=O)(=O)N2CCCCC2)cc1`: the “hERG current change (%, negative = inhibition) at 1uM” value was -14.8%.

For the molecule `Cc1ccccc1OCC(O)CN1CCN(CC(O)COc2ccccc2C)CC1` (stereo not drawn), the “hERG current change (%, negative = inhibition) at 1uM” value is on record as -50.4%.

Turning to `O=C(Nc1ccc(Cl)c(Cl)c1)Nc1ccccc1NS(=O)(=O)c1cccs1`, the “hERG current change (%, negative = inhibition) at 1uM” value came out at 16%.

As for `C1CN(CC23CC4CC(CC(C4)C2)C3)CCO1.Cl`, the “hERG current change (%, negative = inhibition) at 1uM” value worked out at 19.9%.

With `Cc1cccc(/C(N)=N/OC(=O)c2ccncc2)c1`, the “hERG current change (%, negative = inhibition) at 1uM” value was 10.9%.

In the case of `COc1cc(C(=O)N(Cc2cc3cc(C)ccc3[nH]c2=O)CC2CCCO2)cc(OC)c1OC` (stereo not drawn), the “hERG current change (%, negative = inhibition) at 1uM” value came to 13.5%.

On to `Nn1c(SCc2csc(-c3ccccc3)n2)nnc1-c1cccs1`, for which the “hERG current change (%, negative = inhibition) at 1uM” value came to 3.15%.

In the case of `COc1ccc(CCN=C(N)NS(=O)(=O)c2cccs2)cc1`, the “hERG current change (%, negative = inhibition) at 1uM” value is recorded as 10.8%.

Consider `Cc1cc(C)cc(NC(=O)CSc2ccc(-c3cccs3)nn2)c1`, for which the “hERG current change (%, negative = inhibition) at 1uM” value worked out at 2.75%.

As to `CCOC(=O)CSc1nnc(-c2ccccc2)c(=O)[nH]1`, the “hERG current change (%, negative = inhibition) at 1uM” value is given as -14.8%.

Turning to `CC1Cc2ccccc2N1C(=O)c1ccc2c(c1)OCO2` (stereo not drawn), the “hERG current change (%, negative = inhibition) at 1uM” value amounted to 15.9%.

On to `Cn1cc(Br)c(-c2cccc(N3C(=O)CCCC3=O)c2)n1`, for which the “hERG current change (%, negative = inhibition) at 1uM” value is listed as 12.1%.

On to `O=C(CSc1n[nH]c(-c2cccs2)n1)N1CCN(S(=O)(=O)c2ccc3ccccc3c2)CC1`, for which the “hERG current change (%, negative = inhibition) at 1uM” value is reported as -3.55%.

Take `COc1ccc(C2N(C(=O)CN3CCOCC3)CCN2S(=O)(=O)c2ccccc2)cc1` (stereo not drawn): the “hERG current change (%, negative = inhibition) at 1uM” value is recorded as -1.26%.

Regarding `CC(=O)Nc1cccc(OCC(=O)NS(=O)(=O)c2ccc(C)cc2)c1`, the “hERG current change (%, negative = inhibition) at 1uM” value is recorded as 5.58%.

Take `Cc1sc2nc(CN3CCCC3)nc(N3CCN(C(=O)c4ccco4)CC3)c2c1C`: the “hERG current change (%, negative = inhibition) at 1uM” value is -34.4%.

`CN1CCN(C(=O)c2sc(=S)n(-c3ccccc3)c2N)CC1`: the “hERG current change (%, negative = inhibition) at 1uM” value is -3.96%.

In the case of `Cc1sc(NC(=O)c2c(F)cccc2F)nc1-c1ccccc1`, the “hERG current change (%, negative = inhibition) at 1uM” value amounted to 11.3%.

With `N#C/C(=C(/O)COC(=O)Cc1c[nH]c2ccccc12)c1nc2ccccc2[nH]1`, the “hERG current change (%, negative = inhibition) at 1uM” value is given as 12.8%.

As to `CC(CC(=O)Nc1ccc(S(=O)(=O)Nc2ncccn2)cc1)c1ccccc1` (stereo not drawn), the “hERG current change (%, negative = inhibition) at 1uM” value came out at 9.62%.

Take `COC(=O)c1ccccc1NC(=O)NN1CCN(C)CC1`: the “hERG current change (%, negative = inhibition) at 1uM” value was -0.228%.

In the case of `Cc1ccccc1OCC(=O)OCC(=O)NCC1CCCO1` (stereo not drawn), the “hERG current change (%, negative = inhibition) at 1uM” value was 15.8%.

Regarding `Nc1cccc(-c2nnc3n2CCCCC3)c1`, the “hERG current change (%, negative = inhibition) at 1uM” value amounted to 10.3%.

For `Cc1ccc(C(=O)N2CCC3(CC2)Oc2ccc(F)cc2C(=O)C32CC(c3cccnc3)=NO2)s1` (stereo not drawn), the “hERG current change (%, negative = inhibition) at 1uM” value turned out to be 20.3%.

As for `CCN(/C=N/c1sc2c(c1C#N)CCCCC2)CC`, the “hERG current change (%, negative = inhibition) at 1uM” value is given as 6.54%.

Take `CN(C)CCN1C(=O)NC(C)(c2ccc([N+](=O)[O-])cc2)C1=O` (stereo not drawn): the “hERG current change (%, negative = inhibition) at 1uM” value came to 0.545%.

Take `COc1cnc(SCc2ccc(Cl)cc2)nc1Cl`: the “hERG current change (%, negative = inhibition) at 1uM” value was found to be 11.6%.

For `CCOC(=O)C1=C(C)N2C(=C(C#N)[C@@H]1c1ccc(C(=O)OC)cc1)SC[C@@]2(O)C(C)(C)C`, the “hERG current change (%, negative = inhibition) at 1uM” value came out at 10.3%.

As to `N/C(=N\OC(=O)Cc1ccc(-c2ccccc2)cc1)c1cccnc1`, the “hERG current change (%, negative = inhibition) at 1uM” value was 0.886%.

As to `O=C1C(CCCNC(=S)NCc2ccccc2)NC(=S)N1Cc1ccccc1` (stereo not drawn), the “hERG current change (%, negative = inhibition) at 1uM” value was 11.2%.

Take `CC(C(=O)NC(C)(C)C)N1C(=O)c2cccc3cccc(c23)C1=O` (stereo not drawn): the “hERG current change (%, negative = inhibition) at 1uM” value is given as 17.6%.

Turning to `Cc1ccc(-c2[nH]c(=S)[nH]c(=O)c2C#N)cc1`, the “hERG current change (%, negative = inhibition) at 1uM” value is on record as 13%.

Turning to `CC1CCN(c2c(NCC3CCC(C(=O)Nc4ccccn4)CC3)c(=O)c2=O)CC1` (stereo not drawn), the “hERG current change (%, negative = inhibition) at 1uM” value was found to be 16.4%.

As to `CN(Cc1cn(-c2ccccc2)nc1-c1ccc2c(c1)OCO2)Cc1nccn1C`, the “hERG current change (%, negative = inhibition) at 1uM” value was determined as 9.39%.

`N#C/C(=N\Nc1cccc(F)c1)C(=O)C1CC1`: the “hERG current change (%, negative = inhibition) at 1uM” value stood at 14.9%.

As to `CCN1CCN(c2ccc(S(=O)(=O)N3CCCCC3)cc2NC(=O)COc2ccc(Cl)cc2)CC1`, the “hERG current change (%, negative = inhibition) at 1uM” value came out at 5.42%.

Take `Cc1cc(C(C)(C)C)cc(S(=O)(=O)NCCO)c1C`: the “hERG current change (%, negative = inhibition) at 1uM” value was found to be 10.5%.
